{"source": "the supplement of paper PMC11876631", "note": "± gives the standard deviation of the averaged measurements. Laboratory Escherichia coli strains with one amino-acid change in an essential protein, pooled on minimal glucose agar with carbenicillin or gentamicin at twice the control MIC (plus kanamycin and chloramphenicol for the plasmids), 48 h. Fold change of barcode share against drug-free plates; higher = less susceptible. Active = above 20 in both replicates (the paper's putatively resistant). '<' = one read or none on drug, '>' = one read or none on a drug-free plate. Shares are relative, so most strains fall below 1 when a few take over. Listed are strains with at least 15 reads on both drug-free plates, and hits; most hits rest on fewer reference reads. Replicate rank correlation about 0.5. Edits are read from barcodes."}
{"molecular_target": "Escherichia coli (laboratory strain)", "test": "barcode share on antibiotic plates over drug-free plates; higher = less susceptible", "conditions": "antibiotic: gentamicin; 2× MIC (MIC 0.45 µg/mL)", "description": "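A pool of E. coli strains, each edited to carry one amino-acid change in an essential protein, was grown for 48 h on minimal glucose agar with or without antibiotic; strain barcodes were sequenced; mean of two replicates.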"}
{"protein": "pyrG V13D (protein) MTTNYIFVTGGVDSSLGKGIAAASLAAILEARGLNVTIMKLDPYINVDPGTMSPIQHGEVFVTEDGAETDLDLGHYERFIRTKMSRRNNFTTGRIYSDVLRKERRGDYLGATVQVIPHITNAIKERVLEGGEGHDVVLVEIGGTVGDIESLPFLEAIRQMAVEIGREHTLFMHLTLVPYMAASGEVKTKPTQHSVKELLSIGIQPDILICRSDRAVPANERAKIALFCNVPEKAVISLKDVDSIYKIPGLLKSQGLDDYICKRFSLNCPEANLSEWEQVIFEEANPVSEVTIGMVGKYIELPDAYKSVIEALKHGGLKNRVSVNIKLIDSQDVETRGVEILKGLDAILVPGGFGYRGVEGMITTARFARENNIPYLGICLGMQVALIDYARHVANMENANSTEFVPDCKYPVVALITEWRDENGNVEVRSEKSDLGGTMRLGAQQCQLVDDSLVRQLYNAPTIVERHRHRYEVNNMLLKQIEDAGLRVAGRSGDDQLVEIIEVPNHPWFVACQFHPEFTSTPRDGHPLFAGFVKAASEFQKRQAK", "fold change of barcode share": "< 0.0176"}
{"protein": "pyrD V315A (protein) MYYPFVRKALFQLDPERAHEFTFQQLRRITGTPFEALVRQKVPAKPVNCMGLTFKNPLGLAAGLDKDGECIDALGAMGFGSIEIGTVTPRPQPGNDKPRLFRLVDAEGLINRMGFNNLGVDNLVENVKKAHYDGVLGINIGKNKDTPVEQGKDDYLICMEKIYAYAGYIAINISSPNTPGLRTLQYGEALDDLLTAIKNKQNDLQAMHHKYVPIAVKIAPDLSEEELIQVADSLVRHNIDGVIATNTTLDRSLVQGMKNCDQTGGLSGRPLQLKSTEIIRRLSLELNGRLPIIGVGGIDSVIAAREKIAAGASLAQIYSGFIFKGPPLIKEIVTHI", "fold change of barcode share": "< 0.0188"}
{"protein": "pyrD I332A (protein) MYYPFVRKALFQLDPERAHEFTFQQLRRITGTPFEALVRQKVPAKPVNCMGLTFKNPLGLAAGLDKDGECIDALGAMGFGSIEIGTVTPRPQPGNDKPRLFRLVDAEGLINRMGFNNLGVDNLVENVKKAHYDGVLGINIGKNKDTPVEQGKDDYLICMEKIYAYAGYIAINISSPNTPGLRTLQYGEALDDLLTAIKNKQNDLQAMHHKYVPIAVKIAPDLSEEELIQVADSLVRHNIDGVIATNTTLDRSLVQGMKNCDQTGGLSGRPLQLKSTEIIRRLSLELNGRLPIIGVGGIDSVIAAREKIAAGASLVQIYSGFIFKGPPLIKEAVTHI", "fold change of barcode share": "< 0.0192"}
{"protein": "pyrE L122Q (protein) MKPYQRQFIEFALSKQVLKFGEFTLKSGRKSPYFFNAGLFNTGRDLALLGRFYAEALVDSGIEFDLLFGPAYKGIPIATTTAVALAEHHDLDLPYCFNRKEAKDHGEGGNLVGSALQGRVMQVDDVITAGTAIRESMEIIQANGATLAGVLISLDRQERGRGEISAIQEVERDYNCKVISIITLKDLIAYLEEKPEMAEHLAAVKAYREEFGV", "fold change of barcode share": "< 0.0152"}
{"protein": "pyrE V123A (protein) MKPYQRQFIEFALSKQVLKFGEFTLKSGRKSPYFFNAGLFNTGRDLALLGRFYAEALVDSGIEFDLLFGPAYKGIPIATTTAVALAEHHDLDLPYCFNRKEAKDHGEGGNLVGSALQGRVMLADDVITAGTAIRESMEIIQANGATLAGVLISLDRQERGRGEISAIQEVERDYNCKVISIITLKDLIAYLEEKPEMAEHLAAVKAYREEFGV", "fold change of barcode share": "< 0.0202"}
{"protein": "pyrE I182W (protein) MKPYQRQFIEFALSKQVLKFGEFTLKSGRKSPYFFNAGLFNTGRDLALLGRFYAEALVDSGIEFDLLFGPAYKGIPIATTTAVALAEHHDLDLPYCFNRKEAKDHGEGGNLVGSALQGRVMLVDDVITAGTAIRESMEIIQANGATLAGVLISLDRQERGRGEISAIQEVERDYNCKVISIWTLKDLIAYLEEKPEMAEHLAAVKAYREEFGV", "fold change of barcode share": "< 0.0198"}
{"protein": "purH V123A (protein) MQQRRPVRRALLSVSDKAGIVEFAQALSARGVELLSTGGTARLLAEKGLPVTEVSDYTGFPEMMDGRVKTLHPKVHGGILGRRGQDDAIMEEHQIQPIDMVVVNLYPFAQTVAREGCSLEDAAENIDIGGPTMVRSAAKNHKDVAIVVKSSDYDAIIKEMDDNEGSLTLATRFDLAIKAFEHTAAYDSMIANYFGSMVPAYHGESKEAAGRFPRTLNLNFIKKLDMRYGENSHQQAAFYIEENVKEASVATATQVQGKALSYNNIADTDAALECVKEFAEPACVIVKHANPCGVAIGNSILDAYDRAYKTDPTSAFGGIIAFNRELDAETAQAIISRQFVEVIIAPSASEEALKITAAKQNVRVLTCGQWGERVPGLDFKRVNGGLLVQDRDLGMVGAEELRVVTKRQPSEQELRDALFCWKVAKFVKSNAIVYAKNNMTIGIGAGQMSRVYSAKIAGIKAADEGLEVKGSSMASDAFFPFRDGIDAAAAAGVTCVIQPGGSIRDDEVIAAADEHGIAMLFTDMRHFRH", "fold change of barcode share": "0.0106 ± 0.012"}
{"protein": "purH V123D (protein) MQQRRPVRRALLSVSDKAGIVEFAQALSARGVELLSTGGTARLLAEKGLPVTEVSDYTGFPEMMDGRVKTLHPKVHGGILGRRGQDDAIMEEHQIQPIDMVVVNLYPFAQTVAREGCSLEDADENIDIGGPTMVRSAAKNHKDVAIVVKSSDYDAIIKEMDDNEGSLTLATRFDLAIKAFEHTAAYDSMIANYFGSMVPAYHGESKEAAGRFPRTLNLNFIKKLDMRYGENSHQQAAFYIEENVKEASVATATQVQGKALSYNNIADTDAALECVKEFAEPACVIVKHANPCGVAIGNSILDAYDRAYKTDPTSAFGGIIAFNRELDAETAQAIISRQFVEVIIAPSASEEALKITAAKQNVRVLTCGQWGERVPGLDFKRVNGGLLVQDRDLGMVGAEELRVVTKRQPSEQELRDALFCWKVAKFVKSNAIVYAKNNMTIGIGAGQMSRVYSAKIAGIKAADEGLEVKGSSMASDAFFPFRDGIDAAAAAGVTCVIQPGGSIRDDEVIAAADEHGIAMLFTDMRHFRH", "fold change of barcode share": "0.00773 ± 0.0072"}
{"protein": "purH V123Q (protein) MQQRRPVRRALLSVSDKAGIVEFAQALSARGVELLSTGGTARLLAEKGLPVTEVSDYTGFPEMMDGRVKTLHPKVHGGILGRRGQDDAIMEEHQIQPIDMVVVNLYPFAQTVAREGCSLEDAQENIDIGGPTMVRSAAKNHKDVAIVVKSSDYDAIIKEMDDNEGSLTLATRFDLAIKAFEHTAAYDSMIANYFGSMVPAYHGESKEAAGRFPRTLNLNFIKKLDMRYGENSHQQAAFYIEENVKEASVATATQVQGKALSYNNIADTDAALECVKEFAEPACVIVKHANPCGVAIGNSILDAYDRAYKTDPTSAFGGIIAFNRELDAETAQAIISRQFVEVIIAPSASEEALKITAAKQNVRVLTCGQWGERVPGLDFKRVNGGLLVQDRDLGMVGAEELRVVTKRQPSEQELRDALFCWKVAKFVKSNAIVYAKNNMTIGIGAGQMSRVYSAKIAGIKAADEGLEVKGSSMASDAFFPFRDGIDAAAAAGVTCVIQPGGSIRDDEVIAAADEHGIAMLFTDMRHFRH", "fold change of barcode share": "0.01941 ± 3.3e-05"}
{"protein": "purH V123P (protein) MQQRRPVRRALLSVSDKAGIVEFAQALSARGVELLSTGGTARLLAEKGLPVTEVSDYTGFPEMMDGRVKTLHPKVHGGILGRRGQDDAIMEEHQIQPIDMVVVNLYPFAQTVAREGCSLEDAPENIDIGGPTMVRSAAKNHKDVAIVVKSSDYDAIIKEMDDNEGSLTLATRFDLAIKAFEHTAAYDSMIANYFGSMVPAYHGESKEAAGRFPRTLNLNFIKKLDMRYGENSHQQAAFYIEENVKEASVATATQVQGKALSYNNIADTDAALECVKEFAEPACVIVKHANPCGVAIGNSILDAYDRAYKTDPTSAFGGIIAFNRELDAETAQAIISRQFVEVIIAPSASEEALKITAAKQNVRVLTCGQWGERVPGLDFKRVNGGLLVQDRDLGMVGAEELRVVTKRQPSEQELRDALFCWKVAKFVKSNAIVYAKNNMTIGIGAGQMSRVYSAKIAGIKAADEGLEVKGSSMASDAFFPFRDGIDAAAAAGVTCVIQPGGSIRDDEVIAAADEHGIAMLFTDMRHFRH", "fold change of barcode share": "0.00364 ± 0.00067"}
{"protein": "purD M336W (protein) MKVLVIGNGGREHALAWKAAQSPLVETVFVAPGNAGTALEPALQNVAIGVTDIPALLDFAQNEKIDLTIVGPEAPLVKGVVDTFRAAGLKIFGPTAGAAQLEGSKAFTKDFLARHKIPTAEYQNFTEVEPALAYLREKGAPIVIKADGLAAGKGVIVAMTLEEAEAAVHDMLAGNAFGDAGHRIVIEEFLDGEEASFIVMVDGEHVLPMATSQDHKRVGDKDTGPNTGGMGAYSPAPVVTDDVHQRTMERIIWPTVKGMAAEGNTYTGFLYAGLMIDKQGNPKVIEFNCRFGDPETQPIMLRMKSDLVELCLAACESKLDEKTSEWDERASLGVVWAAGGYPGDYRTGDVIHGLPLEEVAGGKVFHAGTKLADDEQVVTNGGRVLCVTALGHTVAEAQKRAYALMTDIHWDDCFCRKDIGWRAIEREQN", "fold change of barcode share": "0.00529 ± 0.0045"}
{"protein": "purD M336Q (protein) MKVLVIGNGGREHALAWKAAQSPLVETVFVAPGNAGTALEPALQNVAIGVTDIPALLDFAQNEKIDLTIVGPEAPLVKGVVDTFRAAGLKIFGPTAGAAQLEGSKAFTKDFLARHKIPTAEYQNFTEVEPALAYLREKGAPIVIKADGLAAGKGVIVAMTLEEAEAAVHDMLAGNAFGDAGHRIVIEEFLDGEEASFIVMVDGEHVLPMATSQDHKRVGDKDTGPNTGGMGAYSPAPVVTDDVHQRTMERIIWPTVKGMAAEGNTYTGFLYAGLMIDKQGNPKVIEFNCRFGDPETQPIMLRMKSDLVELCLAACESKLDEKTSEWDERASLGVVQAAGGYPGDYRTGDVIHGLPLEEVAGGKVFHAGTKLADDEQVVTNGGRVLCVTALGHTVAEAQKRAYALMTDIHWDDCFCRKDIGWRAIEREQN", "fold change of barcode share": "0.00787 ± 0.0068"}
{"protein": "pyrF I125Q (protein) MTLTASSSSRAVTNSPVVVALDYHNRDDALAFVDKIDPRDCRLKVGKEMFTLFGPQFVRELQQRGFDIFLDLKFHDIPNTAAHAVAAAADLGVWMVNVHASGGARMMTAAREALVPFGKDAPLLQAVTVLTSMEASDLVDLGMTLSPADYAERLAALTQKCGLDGVVCSAQEAVRFKQVFGQEFKLVTPGIRPQGSEAGDQRRIMTPEQALSAGVDYMVIGRPVTQSVDPAQTLKAINASLQRSA", "fold change of barcode share": "< 0.0149"}
